# According to ChEMBL document CHEMBL5606458, “ASAP - ZIKV NS2B-NS3 protease fluorescence single point” (2024):
# Screen size: about 2,700 compounds; about 160 (5.9%) showed an effect of 50% or more. The list shows a part of the results.
# Molecular target: Nonstructural protein 3 (Zika virus) (UniProt A0A024AXB9)
# [1] = PRVABC59, Concentration 50.0 uM, Number of replicates 1.0
# [2] = PRVABC59, Concentration 15.0 uM, Number of replicates 1.0
# Chain of UniProt A0A024AXB9 (A0A024AXB9 as listed by the source): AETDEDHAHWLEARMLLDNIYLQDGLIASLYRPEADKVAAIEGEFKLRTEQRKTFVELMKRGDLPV
structure (smiles),measurement,setting,value
Cc1nn([C@@H](C)c2ccc(F)c(F)c2F)cc1C1CCNCC1,inhibition,"PRVABC59, Concentration 49.5 uM, Number of replicates 2.0, Standard deviation 4.947327227676943 %",-1.68%
same,inhibition,"PRVABC59, Concentration 99.01 uM, Number of replicates 2.0, Standard deviation 2.8449181750441386 %",1.52%
same,inhibition,"PRVABC59, Concentration 198.0 uM, Number of replicates 2.0, Standard deviation 2.728003744505586 %",3.89%
COc1nscc1-c1ccccc1C(=O)Nc1cnn(C)c1,inhibition,"PRVABC59, Concentration 49.5 uM, Number of replicates 2.0, Standard deviation 2.0613155081961194 %",-1.46%
same,inhibition,"PRVABC59, Concentration 99.01 uM, Number of replicates 2.0, Standard deviation 1.0972097923679232 %",1.42%
same,inhibition,"PRVABC59, Concentration 198.0 uM, Number of replicates 2.0, Standard deviation 0.19246139208887503 %",3.36%
Cc1cc(CO)c2cccc(CC(=O)N[C@H](Cc3c[nH]cn3)C(=O)O)c2n1,inhibition,"PRVABC59, Concentration 49.95 uM, Number of replicates 2.0, Standard deviation 0.34100711672855083 %",-8.86%
same,inhibition,"PRVABC59, Concentration 99.9 uM, Number of replicates 2.0, Standard deviation 0.9059596585584027 %",-5.32%
O=Cc1ccc(N2CCC(C(=O)N[C@H](CO)Cc3ccc(Cl)cc3)CC2)cc1,inhibition,[1],24.1%
Cc1cc(CO)c2cccc(Cc3cccc(C(=O)N4CC5(CCCOC5)C4)c3)c2n1,inhibition,"PRVABC59, Concentration 49.95 uM, Number of replicates 2.0, Standard deviation 0.5767806333959491 %",-2.97%
same,inhibition,"PRVABC59, Concentration 99.9 uM, Number of replicates 2.0, Standard deviation 1.1011265622203132 %",-0.434%
O=C(c1cc(Cl)ccc1NS(=O)(=O)c1ccc(Oc2ccccc2Cl)cc1)N1CCN(c2cccc3sccc23)CC1,inhibition,[2],11%
O=Cc1ccc(N2CCC(C(=O)N3CCO[C@@H](c4ccccc4)C3)CC2)cc1,inhibition,[1],17%
Cc1cc(CO)c2cccc(NC(=O)[C@@H]3CCCC[C@H]3C(=O)O)c2n1,inhibition,"PRVABC59, Concentration 49.95 uM, Number of replicates 2.0, Standard deviation 1.6258787445174738 %",3.41%
same,inhibition,"PRVABC59, Concentration 99.9 uM, Number of replicates 2.0, Standard deviation 1.31977157857946 %",10.8%
COCc1cc(-c2ccccc2C(=O)Nc2cnn(C)c2)ccn1,inhibition,"PRVABC59, Concentration 49.5 uM, Number of replicates 2.0, Standard deviation 2.988446528102835 %",-2.8%
same,inhibition,"PRVABC59, Concentration 99.01 uM, Number of replicates 2.0, Standard deviation 3.052465357207912 %",-1.41%
same,inhibition,"PRVABC59, Concentration 198.0 uM, Number of replicates 2.0, Standard deviation 2.2556370392609493 %",-1.01%
COC1CN(C(=O)c2cc(Cl)ccc2NS(=O)(=O)c2ccc(Oc3ccccc3Cl)cc2)C1,inhibition,"PRVABC59, Concentration 49.5 uM, Number of replicates 2.0, Standard deviation 0.6071418743640448 %",6.32%
same,inhibition,"PRVABC59, Concentration 99.01 uM, Number of replicates 2.0, Standard deviation 1.0994187508452276 %",8.03%
same,inhibition,"PRVABC59, Concentration 198.0 uM, Number of replicates 2.0, Standard deviation 2.4498991975993007 %",8.64%
CCCCCC(=O)N[C@@H](Cc1ccc(C#N)cc1)C(=O)Nc1cccc(C(N)=O)c1,inhibition,"PRVABC59, Concentration 49.5 uM, Number of replicates 2.0, Standard deviation 1.1507413475985797 %",0.288%
same,inhibition,"PRVABC59, Concentration 99.01 uM, Number of replicates 2.0, Standard deviation 0.4412760076959384 %",-0.031%
same,inhibition,"PRVABC59, Concentration 198.0 uM, Number of replicates 2.0, Standard deviation 0.36329192570389796 %",1.27%
O=Cc1ccc(N2CCC(C(=O)Nc3ccc4scnc4c3)CC2)cc1,inhibition,[1],-2.75%
CNC(=O)c1cc(Cl)ccc1NS(=O)(=O)c1ccc(C(=O)N2CCOCC2)cc1,inhibition,"PRVABC59, Concentration 49.5 uM, Number of replicates 2.0, Standard deviation 2.1123942311009145 %",0.25%
same,inhibition,"PRVABC59, Concentration 99.01 uM, Number of replicates 2.0, Standard deviation 1.3328682902857352 %",2.39%
same,inhibition,"PRVABC59, Concentration 198.0 uM, Number of replicates 2.0, Standard deviation 0.3170609632786013 %",6.71%
Cc1cnccc1NC(=O)c1cnn(C2CC2)c1,inhibition,"PRVABC59, Concentration 49.5 uM, Number of replicates 2.0, Standard deviation 1.699564164062767 %",-2.95%
same,inhibition,"PRVABC59, Concentration 99.01 uM, Number of replicates 2.0, Standard deviation 1.3264890275888233 %",-1.94%
same,inhibition,"PRVABC59, Concentration 198.0 uM, Number of replicates 2.0, Standard deviation 2.1659080003614997 %",-1.13%
O=C(Nc1ccc([N+](=O)[O-])cc1C(F)(F)F)c1cc(Cl)ccc1NS(=O)(=O)c1ccc(Oc2ccccc2Cl)cc1,inhibition,[2],27.2%
CC1(C)CC(=O)CC(C)(C)N1C(=O)c1cc(Cl)ccc1NS(=O)(=O)c1ccc(Oc2ccccc2Cl)cc1,inhibition,[2],18.2%
CO[C@H]1C[C@@H](CNCc2nnc3ccccn23)C1,inhibition,"PRVABC59, Concentration 49.5 uM, Number of replicates 2.0, Standard deviation 2.1759199842252626 %",-3.19%
same,inhibition,"PRVABC59, Concentration 99.01 uM, Number of replicates 2.0, Standard deviation 1.2241651616551656 %",-3.67%
same,inhibition,"PRVABC59, Concentration 198.0 uM, Number of replicates 2.0, Standard deviation 0.35144301359463626 %",-2.83%
Cc1cc(NC(=O)c2cc(Cl)ccc2NS(=O)(=O)c2ccc(Oc3ccccc3Cl)cc2)cnc1Br,inhibition,[2],31.3%
COc1ccc([C@H](C)NC(=O)c2cc(Cl)ccc2NS(=O)(=O)c2ccc(Oc3ccccc3Cl)cc2)cc1,inhibition,[2],35.3%
CC(C)N(C[C@H](O)c1ccc(O)c(O)c1)C(=O)C1CCN(c2ccc(C=O)cc2)CC1,inhibition,[1],20.9%
O=C(c1cc(Cl)ccc1NS(=O)(=O)c1ccc(Oc2ccccc2Cl)cc1)N1CCN(CCc2ccccc2)CC1,inhibition,[2],53.5%
c1cc(CN2CCOC[C@@H]2Cc2c[nH]c3ccccc23)c2[nH]ncc2c1,inhibition,"PRVABC59, Concentration 49.5 uM, Number of replicates 2.0, Standard deviation 1.764529400651156 %",5.08%
same,inhibition,"PRVABC59, Concentration 99.01 uM, Number of replicates 2.0, Standard deviation 2.5865369202481028 %",8.07%
same,inhibition,"PRVABC59, Concentration 198.0 uM, Number of replicates 2.0, Standard deviation 0.3813254663636482 %",7.31%
Cn1ccc(NS(=O)(=O)c2ccc(Oc3ccccc3)cc2)n1,inhibition,"PRVABC59, Concentration 49.5 uM, Number of replicates 2.0, Standard deviation 3.708556244257721 %",1.52%
same,inhibition,"PRVABC59, Concentration 99.01 uM, Number of replicates 2.0, Standard deviation 1.6649328572846385 %",3.72%
same,inhibition,"PRVABC59, Concentration 198.0 uM, Number of replicates 2.0, Standard deviation 1.0446639254833907 %",6.61%
Cc1noc([C@@H]2CCCCN2C(=O)C2CCN(c3ccc(C=O)cc3)CC2)n1,inhibition,[1],25.7%
CNC(=O)c1cnncc1NS(=O)(=O)c1ccc(Oc2ccccc2Cl)cc1,inhibition,"PRVABC59, Concentration 49.5 uM, Number of replicates 2.0, Standard deviation 0.11085177496765475 %",3.67%
same,inhibition,"PRVABC59, Concentration 99.01 uM, Number of replicates 2.0, Standard deviation 0.5160965893855995 %",7.95%
same,inhibition,"PRVABC59, Concentration 198.0 uM, Number of replicates 2.0, Standard deviation 0.0817756757043532 %",15.2%
